# Reference: PubChem BioAssay AID488969 (Vanderbilt High Throughput Screening Facility, 2010)
# The full ranking holds about 110,000 compounds; the median of “z-score” is about -0.1, and the highest 2% start at about 2. The list shows a part of the results. The source made the active and inactive calls.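 The calls were made as follows: active = z-score in the third read window above 3 or below -3; inactive = the rest.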
# Biological target: Metabotropic glutamate receptor 8 (Rattus norvegicus) (UniProt P70579)
# Chain of UniProt P70579 (P70579 whole entry, looked up): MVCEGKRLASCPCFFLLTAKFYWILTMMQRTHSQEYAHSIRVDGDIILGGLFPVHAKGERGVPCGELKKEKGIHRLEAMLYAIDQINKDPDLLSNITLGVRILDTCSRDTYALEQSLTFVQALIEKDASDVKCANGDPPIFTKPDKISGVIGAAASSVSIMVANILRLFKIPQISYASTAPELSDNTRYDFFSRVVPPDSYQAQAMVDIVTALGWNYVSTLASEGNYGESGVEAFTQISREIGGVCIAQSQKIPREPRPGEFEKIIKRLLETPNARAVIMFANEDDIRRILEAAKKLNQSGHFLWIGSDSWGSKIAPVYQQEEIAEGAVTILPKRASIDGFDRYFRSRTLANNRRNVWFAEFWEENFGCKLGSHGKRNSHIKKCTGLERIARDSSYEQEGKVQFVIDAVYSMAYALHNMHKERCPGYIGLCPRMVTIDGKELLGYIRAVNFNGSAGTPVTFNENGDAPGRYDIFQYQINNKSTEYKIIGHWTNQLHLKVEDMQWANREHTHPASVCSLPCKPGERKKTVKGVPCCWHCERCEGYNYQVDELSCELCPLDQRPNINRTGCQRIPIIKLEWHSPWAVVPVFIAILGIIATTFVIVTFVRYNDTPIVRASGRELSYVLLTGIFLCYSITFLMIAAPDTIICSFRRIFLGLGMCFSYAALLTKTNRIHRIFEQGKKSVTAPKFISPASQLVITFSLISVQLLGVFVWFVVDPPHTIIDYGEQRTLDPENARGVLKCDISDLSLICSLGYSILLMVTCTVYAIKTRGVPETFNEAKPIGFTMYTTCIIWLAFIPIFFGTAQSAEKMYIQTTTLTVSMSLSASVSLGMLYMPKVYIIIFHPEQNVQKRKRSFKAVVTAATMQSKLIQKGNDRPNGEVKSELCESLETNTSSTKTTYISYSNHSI
# Test: mGluR8 Gi/Go-coupled signaling modulation – cell-based, rat, thallium flux, HTS, primary screen (AID 488969)
# Details: HEK293 rat mGluR8, GIRK (G protein-gated inwardly rectifying potassium channel) thallium flux, FluoZin2; at 10 µM; stronger effect = higher value; submaximal glutamate (EC20) added with thallium
row,Compound,z-score
1,CCn1nnnc1SCC(=O)N1c2ccccc2Sc2ccccc21,-0.251
2,Cc1ccc(C(=O)c2cc3ccccc3o2)cc1,-0.0424
3,CCCSc1nnc(CSc2nc3nc(C)cc(C)n3n2)o1,0.0497
4,COC(=O)C1C2C=CC(C3CC23)C1C(=O)OCC(=O)c1ccc(OC)cc1 (configuration not stated),-0.246
5,OCCN(Cc1ccccc1)Cc1cccc(Cl)c1Cl,-0.371
6,COc1ccccc1NC(=O)N(c1c(N)n(Cc2ccccc2)c(=O)[nH]c1=O)C1CCCC1,0.151
7,O=C(NC(=S)Nc1ccc(Cl)cn1)c1cccs1,active: 10.3
8,Nc1nc2sc3c(c2cc1C(=O)N1CCOCC1)CCCC3,-0.115
9,O=c1c(/C=N/O)c(Nc2ccccc2)nc2ccccn12,-0.38
10,COc1ccc(S(=O)(=O)N2CCCC(C(=O)Nc3ccc(OC)c(OC)c3)C2)cc1 (configuration not stated),-0.503
11,Cc1ccc(-c2nc(C#N)c(NCCN3CCCCC3)o2)cc1,1.04
12,Cc1cc(C(=O)Nc2ccc(N3CCOCC3)cc2)c2ccccc2n1,-0.331
13,CCOC(=O)N1CCN(C(=O)CSc2nnc(-c3ccccc3OC)o2)CC1,-0.875
14,CCCCNCCCCOc1ccccc1,0.142
15,COc1cccc(NC(=O)N[C@@H](Cc2ccccc2)C(=O)O)c1,-0.415
16,Cc1ccccc1NC(=O)Cc1nnc(SCc2ccc(Cl)c(Cl)c2)n1C,-0.00483
17,CN1CCN(CC(=O)Nc2ccc(Oc3ccccc3)cc2)CC1,1.4
18,Nc1sc2c(c1C(=O)c1ccccc1)CCCC2,-0.0368
19,Cn1c2c(c(=O)n(C)c1=O)C(NC(=O)c1cccs1)(C(F)(F)F)C(=O)N2 (configuration not stated),1.21
20,CC1CCCCN1CCNC(=O)c1cc2c(=O)n(C)c3ccccc3c2n1C (configuration not stated),1.88
21,COC(=O)c1[nH]c2cccc(C)c2c1NC(=O)CN1CCCc2ccccc21,0.325
22,CCOc1ccccc1NC(=O)c1ccoc1C,-0.211
23,CCCC(c1nnnn1C1CCCCC1)N1CCN(c2ncccn2)CC1 (configuration not stated),-0.271

row,Compound,z-score
1,CCSc1nc2sc3c(c2c(=O)n1CC)CC(C)(C)OC3,-1.33
2,Cc1ccccc1NC(=O)c1cccc(OCc2c(C)noc2C)c1,-0.269
3,CCOC(=O)c1cccc(NC(=O)C2CCC(CNc3c(N4CCOCC4)c(=O)c3=O)CC2)c1 (configuration not stated),0.359
4,COc1cc(/C=C(\C#N)c2nc3ccc(C)cc3[nH]2)c([N+](=O)[O-])cc1OC,-0.78
5,COc1cccc(OCCCn2cc(/C=C3/C(=N)N4C=C(C)SC4=NC3=O)c3ccccc32)c1,0.00229
6,COc1ccccc1Nc1nc(-c2sc(NC(=O)c3ccco3)nc2C)cs1,-0.263
7,COc1ccc(-c2ncc3ccccn23)cc1,-0.361
8,COc1cc(C)c(CNc2ccc(OC)c(OC)c2)cc1C,-0.0341
9,C=C(C)CSc1nnc([C@H](CCSC)NC(=O)OC(C)(C)C)o1,0.0273
10,CCC1CCCCN1CCCNC(=O)CNC(=O)Cn1ccc2ccccc2c1=O (configuration not stated),-0.263
11,CCNC(=O)NC(=O)C(C)OC(=O)c1cccnc1SC (configuration not stated),-0.0754
12,COC(=O)c1nn(-c2ccc(Cl)cc2)c(=O)cc1Sc1ccccn1,0.0537
13,CC(C)OCCCNC(=O)c1ccc(Br)cc1,0.954
14,CC(=O)C(Sc1ccc2nnc(-c3ccc(C)cc3)n2n1)C(C)=O,1.78
15,COC(=O)c1ccc(NC(=O)C23CCC(C)(C(=O)O2)C3(C)C)cc1 (configuration not stated),2.35
16,NS(=O)(=O)c1ccc(NC(=S)N2CCN(c3ccccc3Cl)CC2)cc1,0.00418
17,CCC(C)NC(=O)CCCCCn1c(=O)[nH]c2cc(OC)c(OC)cc2c1=O (configuration not stated),-1.26
18,CCS(=O)(=O)c1nc2ccccc2n1CC(=O)N1CCCCC1,0.849
19,CCCCOc1ccc(C(CC(=O)NC)C(=O)O)cc1 (configuration not stated),0.207
20,O=C(CCc1nc(-c2ccccc2)no1)N1CCCC1,-0.208
21,CCOc1ccc(CN(C(=O)c2oc3cc(C)ccc3c2C)C2CCS(=O)(=O)C2)cc1 (configuration not stated),-0.0359
22,Cc1ccc(C)c(SCC(=O)OCC(=O)Nc2ncc(C(F)(F)F)cc2Cl)c1,-0.117
23,Cc1cc(C)cc(NC(=O)c2ccc(CSc3nnc(C)s3)cc2)c1,-0.4

row,Compound,z-score
1,CC(C)CC(=O)NC(=S)NCCc1ccccc1,0.38
2,Cc1ccccc1CN1C(=O)Nc2ccccc2C(=O)N1C(C)(C)C,-0.18
3,CCCCCOP(=O)(OCCCCC)C1(NS(=O)(=O)c2ccccc2)C=CC(=O)c2ccccc21 (configuration not stated),-0.189
4,CCCN1C(=O)C(Cc2nc3ccccc3c(=O)n2-c2ccccc2)c2ccccc21 (configuration not stated),-1.6
5,CC(=O)CC(=O)NC(=NC1CCCCC1)Nc1nc(C)cc(C)n1,-0.399
6,CC1CN(Cc2nc3c(c(=O)n(C)c(=O)n3C)n2CC(O)CO)CC(C)O1 (configuration not stated),0.278
7,COc1ccc(/C=N/NC(=O)c2cc(-c3ccc4c(c3)OCO4)n[nH]2)cc1OC,-0.211
8,CN(C(=O)CSC1=NCCS1)c1ccccc1,0.0673
9,O=C(COC(=O)CNS(=O)(=O)/C=C/c1ccccc1)NC1CCS(=O)(=O)C1 (configuration not stated),0.581
10,C=CCc1cccc(OC)c1OCCOCCn1ccnc1,-0.0997
11,O=S(=O)(NCCNS(=O)(=O)c1ccccc1)c1ccccc1,0.165
12,O=C(c1c(F)cccc1F)N1CCN(c2ccccc2F)CC1,-0.129
13,Cc1nn(Cc2c(Cl)cccc2Cl)c(C)c1C(=O)NCc1ccc(C)n1C,1.8
14,Cc1cc(NC(=O)CSc2ncnc3ccccc23)no1,-0.281
15,CC(=O)NC(Cc1ccc(F)cc1)C(=O)O (configuration not stated),-0.146
16,CCCCCC(=O)Nc1sc(C)c(C)c1C#N,0.0905
17,O=S(=O)(c1ccccc1)N(Cc1ccccc1)c1ccccn1,-1.1
18,O=C(O)c1ccc(SCc2cnc(Cl)s2)cc1,0.374
19,CCOC(=O)c1cc([N+](=O)[O-])sc1NC(=O)c1ccc(S(=O)(=O)N2CC3(C)CC2CC(C)(C)C3)cc1 (configuration not stated),0.0528
20,Cc1ccc(S(=O)(=O)Cc2ccc(C(=O)N3CCN(c4ccc(F)cc4)CC3)o2)cc1,-0.278
21,Cc1ccc(/C(N)=N/OC(=O)CCC2CCCCC2)cc1,0.178
22,Cc1nn(CC(=O)Nc2ccc3c(c2)nc2n3CCOC2)c(=O)c2ccccc12,-0.0988
23,COC(=O)c1ccc(COc2ccccc2/C=C(\C#N)C(=O)Nc2ccc(C)cc2)cc1,-0.0714

row,Compound,z-score
1,COc1ccc(CNc2ncnc3cc(OC)c(OC)cc23)cc1,-0.0976
2,O=C(CCc1ccc(S(=O)(=O)N2CCOCC2)cc1)NN=C1CCCCCCC1,-0.592
3,O=C(c1cccc(S(=O)(=O)N2CCOCC2)c1)N(CCO)Cc1ccccc1,-0.0818
4,COc1cc(N/C(=N/S(=O)(=O)c2ccccc2)c2ccccc2)ncn1,0.0664
5,COc1ccc(C(=O)NNC(=O)Cc2ccc([N+](=O)[O-])cc2)cc1,-0.0669
6,O=C(Nc1nnc(-c2ccccc2)o1)c1cc(Cl)sc1Cl,active: 11.3
7,Cc1c(-c2ccccc2)[n+](=O)c2c(n1[O-])CCC2,0.748
8,O=C(CN1C(=O)/C(=C/c2ccccc2)SC1=S)Nc1ncc(Cc2ccccc2)s1,-0.034
9,CCOc1ccc(-n2c(SCC(=O)Nc3cc(OC)c([N+](=O)[O-])cc3C)nc3ccccc32)cc1,0.119
10,CN(C)c1ccc(N=C/C=C2\N(C)c3ccccc3C2(C)C)cc1,0.852
11,C=CCn1c(CNc2ccccc2)nnc1SCC(=O)N/N=C/c1ccc(O)cc1O,0.0495
12,CN(C)CCCOC(=O)c1ccc(Cl)cc1Cl,0.77
13,Cc1cc2ccccn2c1C(=O)c1nc(N2CCOCC2)ncc1Cl,-0.524
14,Cc1ccc(-c2nnc(SCC(=O)N3CCCC3)o2)cc1,0.23
15,COc1ccc(S(=O)(=O)Cc2ccc(C(=O)NCc3cccnc3)o2)cc1,-0.0868
16,COc1cc2c(cc1O)C(SC)=NC(C)(C)C2,-0.125
17,COc1cc(C(=O)NCc2ccc(-c3nc4ccccc4o3)cc2)cc(OC)c1OC,-0.0933
18,O=C(CO/N=C/c1ccc(OC(F)F)cc1)NCc1cccs1,-0.349
19,Cc1ccsc1/C=N\NC(=O)c1n[nH]c2c1CCC2,1.75
20,COC(=O)c1sccc1NC(=O)c1ccc(OC)cc1,0.426
21,CC1Cc2ccccc2N1C(=O)COC(=O)Cn1nnc(-c2ccccc2)n1 (configuration not stated),-0.414
22,COC(=O)c1sccc1NC(=S)N1CCN(c2ccccc2)CC1,-0.397
23,Cc1cccc(C)c1NC(=O)C(=O)NCCCN1CCOCC1,-0.137

row,Compound,z-score
1,COc1ccc(N(CC(=O)Nc2nccs2)S(=O)(=O)c2c(C)nn(C)c2C)cc1,0.0495
2,CCOc1ccccc1NS(=O)(=O)c1ccc(Br)s1,0.608
3,Cc1ccc(NC(=O)CSCC#N)cc1Cl,-0.0832
4,CC(C)NC(=O)C1CC(=O)N(C(C)c2ccccc2)C1 (configuration not stated),-0.27
5,O=C(C1CCCN(Cc2cccc(F)c2)C1)N1CCCCC1 (configuration not stated),0.347
6,CCn1c(SCC(=O)c2cc(C)n(C)c2C)nnc1-c1ccccc1,0.0656
7,Cc1ccccc1NS(=O)(=O)c1ccc(OCC(=O)N2CCCCC2)cc1,0.204
8,S=C(Nc1ccc(Cl)c(Cl)c1)NC1CCCCC1,0.535
9,Cc1ccccc1NN=Nc1nc2c([nH]1)c(=O)n(C)c(=O)n2C,-0.189
10,COc1ccc(N2CCN(Cc3nc4scc(-c5ccccc5)c4c(=O)[nH]3)CC2)cc1,-0.00785
11,CCCCn1c(=O)c(CCC(=O)OCC(=O)Nc2ccc(F)c(Cl)c2)nc2ccccc21,-1.78
12,CCCCC(c1nnnn1C1CCCC1)N1CCN(C2CCCCC2)CC1 (configuration not stated),-0.391
13,O=Cc1nc(-c2ccc(Cl)cc2)n2ccccc12,-0.252
14,O=C(NCc1ccco1)C1CCCN(S(=O)(=O)c2cccc3cccnc23)C1 (configuration not stated),1.01
15,CCC(=O)Oc1ccc2oc(=O)cc(C)c2c1,-0.156
16,COc1ccccc1N=C1SC(C(=O)Nc2ccc(F)cc2)CC(=O)N1C (configuration not stated),-0.105
17,Cc1ccc(/C=C/C(=O)N2CCN(S(=O)(=O)c3c(C)c(C)cc(C)c3C)CC2)o1,0.442
18,CCC1(CC)Cc2ccccc2C(Nc2c(C)n(C)n(-c3ccccc3)c2=O)=N1,-0.52
19,O=C(OCC(=O)N1CCN(C(=O)c2ccco2)CC1)c1ccccc1O,0.0231
20,Cc1ccc(CC(=O)Nc2nc3ccccc3s2)cc1,-0.00106
